# Screen size: about 310,000 compounds; about 2,200 (0.71%) showed an effect of 50% or more. Effects have a minus sign here. Some of the results follow.
# Target: human ether-à-go-go-related gene (hERG) potassium channel (human, UniProt Q12809)
# Test: primary screen, population patch clamp on CHO cells stably expressing hERG
# Chain of human ether-à-go-go-related gene (hERG) potassium channel (Q12809 whole entry, looked up): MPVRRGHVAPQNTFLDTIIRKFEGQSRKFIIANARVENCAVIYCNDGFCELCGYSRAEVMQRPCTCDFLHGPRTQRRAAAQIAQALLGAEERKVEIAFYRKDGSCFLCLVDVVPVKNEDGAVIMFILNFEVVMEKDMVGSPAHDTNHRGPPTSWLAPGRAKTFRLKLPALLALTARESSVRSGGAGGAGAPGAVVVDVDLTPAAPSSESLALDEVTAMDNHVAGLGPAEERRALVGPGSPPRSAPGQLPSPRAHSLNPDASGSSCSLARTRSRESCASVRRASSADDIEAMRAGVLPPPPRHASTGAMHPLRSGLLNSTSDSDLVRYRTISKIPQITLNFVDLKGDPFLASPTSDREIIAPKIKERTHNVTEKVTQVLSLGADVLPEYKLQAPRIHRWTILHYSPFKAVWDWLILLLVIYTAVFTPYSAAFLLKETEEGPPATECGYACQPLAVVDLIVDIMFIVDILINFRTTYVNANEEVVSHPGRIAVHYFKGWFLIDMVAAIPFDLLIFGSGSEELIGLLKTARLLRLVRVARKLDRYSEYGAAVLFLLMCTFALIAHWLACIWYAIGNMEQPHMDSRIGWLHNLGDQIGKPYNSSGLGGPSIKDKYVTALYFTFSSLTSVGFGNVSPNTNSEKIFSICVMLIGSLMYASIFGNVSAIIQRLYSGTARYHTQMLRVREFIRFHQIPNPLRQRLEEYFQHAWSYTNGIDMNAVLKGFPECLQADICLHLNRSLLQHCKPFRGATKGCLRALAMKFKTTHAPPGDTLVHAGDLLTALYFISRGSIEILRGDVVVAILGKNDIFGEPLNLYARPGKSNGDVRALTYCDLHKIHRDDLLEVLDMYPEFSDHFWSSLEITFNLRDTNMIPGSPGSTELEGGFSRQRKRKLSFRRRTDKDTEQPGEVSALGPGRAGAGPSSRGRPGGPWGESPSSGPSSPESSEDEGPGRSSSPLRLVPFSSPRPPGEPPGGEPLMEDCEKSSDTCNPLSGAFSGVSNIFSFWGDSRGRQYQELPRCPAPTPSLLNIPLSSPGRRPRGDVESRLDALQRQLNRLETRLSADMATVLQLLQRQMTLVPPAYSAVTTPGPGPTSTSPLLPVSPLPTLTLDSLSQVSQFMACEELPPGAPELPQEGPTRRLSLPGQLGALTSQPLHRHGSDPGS
row,Structure (SMILES),"hERG current change (%, negative = inhibition) at 1uM"
1,O=C(CCN1CCN(c2ccccc2F)CC1)Nc1ccccc1Cl,7.43%
2,CCN(CCNC(=O)CS(=O)(=O)Cc1nc(-c2cccc(OC)c2)oc1C)c1ccccc1,13.5%
3,COc1c(O)cccc1[C@@H](O)C1CCN(CCc2ccc(F)cc2)CC1,-25.3%
4,CNc1cnn(-c2ccc(C)cc2)c(=O)c1Sc1ccc(C)cc1,6.52%
5,COC(=O)c1cc(C#N)c(SCc2ccccc2)nc1C,5.93%
6,CCOc1ccc(C(=O)Nc2nc(C)cc(C)n2)cc1[N+](=O)[O-],-28%
7,O=C(CN(c1ccc(Br)cc1)S(=O)(=O)c1ccc(Cl)c([N+](=O)[O-])c1)NCCc1ccccc1,18.8%
8,CCn1nnnc1NCc1c(OC)ccc2ccccc12,10.1%
9,COc1ccc(/C=N/Nc2cc(C)nc(N3CCOCC3)n2)cc1OC,10.6%
10,Cc1ccc(C(=O)N/N=C\c2cc3c(cc2Br)OCO3)s1,14%
11,Cc1ccc(S(=O)(=O)/N=C(\N)Nc2nc(C)c3cc(C)c(C)cc3n2)cc1,-7.23%
12,CCNc1nc(NCC)nc(SCC(C)=O)n1,17.1%
13,COc1ccc(Br)cc1/C=N/NC(=O)c1cccnc1,11.3%
14,Cc1ccc(S(=O)(=O)N(C)CCCC(=O)Nc2ccc(C)cc2C)cc1,10.4%
15,CCNc1nnc(SCC(=O)c2c(N)n(C3CC3)c(=O)[nH]c2=O)s1,6.93%
16,CCOc1cc(-c2sc(Nc3ccccc3)n[n+]2-c2ccc(F)cc2)ccc1OC.[Cl-],16.7%
17,CC(C)(C)NC(=O)[C@@H]1CN(Cc2cccnc2)CCN1C[C@@H](O)C[C@@H](Cc1ccccc1)C(=O)N[C@H]1c2ccccc2C[C@H]1O.O=S(=O)(O)O,2.2%
18,O=C(c1ccc(Cn2c(=O)[nH]c3ccccc3c2=O)cc1)N1CCN(c2ccccn2)CC1,0.17%
19,Cl.Cn1nnnc1SCCNCc1ccncc1,0.323%
20,CC(=O)Nc1ccc(N(C(=O)Cc2c[nH]c3ccccc23)C(C(=O)NC2CCCCC2)c2ccco2)cc1 (centres unmarked),14.7%
21,Cc1cc(S(=O)(=O)N(Cc2ccccc2)Cc2ccc(N(C)C)cc2)ccc1-n1cnnn1,12.1%
22,Cc1c(NC(=O)CSc2nnc(C(C)Oc3ccc(Cl)cc3)n2-c2ccccc2)c(=O)n(-c2ccccc2)n1C (centres unmarked),7.41%
23,CC(C)(C)N(C(=O)Cn1nnc(-c2ccc(F)cc2)n1)C(C(=O)NC1CCCC1)c1ccncc1.Cl (centres unmarked),13.7%
24,COc1ccc(CNC(=O)C2CCN(C(=O)[C@@H]3Cc4ccccc4CN3)CC2)cc1,-13.7%
25,COc1cc(C2C3C(=O)N(c4ccc(F)cc4)C(=O)C3ON2c2ccccc2)ccc1O (centres unmarked),6.49%
26,COC(=O)[C@@H](Cc1ccccc1)NC(=O)NCCc1ccc(OC)c(OC)c1,14%
27,CCOc1ccccc1-c1cc(-c2n[nH]c(=S)n2CC)c2ccccc2n1,7.67%

row,Structure (SMILES),"hERG current change (%, negative = inhibition) at 1uM"
1,COc1ccc(S(=O)(=O)N2CCN(CC(O)COc3ccc(C#N)cc3)CC2)cc1OC (centres unmarked),-3.64%
2,Cl.OC(CN1CCCCC1)CN(c1ccccc1)c1ccccc1 (centres unmarked),-14.3%
3,CCC12CC3CC(C1)CC(C(=O)Nc1nn[nH]n1)(C3)C2,-11.9%
4,CCOc1ccc(NC(=O)CN(C)C(=O)Cc2n[nH]c(=O)c3ccccc23)cc1OCC,4.88%
5,CCC(=O)Nc1ccc(S(=O)(=O)c2ccc(NC(=O)CC)cc2)cc1,16.8%
6,COc1ccc(NC(=O)[C@@H]2CCCN2S(=O)(=O)c2cccc3cccnc23)cc1,6.08%
7,C/C(=N/NC(=O)C1CCCC1)c1ccc(NC(=O)C(F)(F)F)cc1,13.8%
8,CC(=O)SC1CC(=O)N(c2ccc(C(C)(C)C)cc2)C1=O (centres unmarked),12.7%
9,O=C(NCCc1c[nH]c2ccccc12)c1ccccc1,9.74%
10,O=C(NCc1cccnc1)C(=O)c1c[nH]c2ccccc12,13.9%
11,Nc1nc2nc(-c3ccccc3)cc(=O)n2[nH]1,11%
12,CCOC(=O)c1oc2c(CN3CCN(CCO)CC3)c(O)c(CC)cc2c(=O)c1-c1nc2ccccc2s1,15.7%
13,O=c1c2cc3c(cc2[nH]c(=S)n1C1CCN(Cc2ccccc2)CC1)OCO3,-2.26%
14,O=C(CCCn1ncn2c(cc3occc32)c1=O)NCc1cccc(Cl)c1,-18.8%
15,COc1ccc(NC(=O)C(F)(OC)C(F)(F)F)c(OC)c1 (centres unmarked),-1.8%
16,Cc1cc(/C=C2\SC(=O)N(C)C2=O)c(C)n1-c1ccc(O)cc1,7.84%
17,CSc1ncc(Cl)c(C(=O)NCc2cccnc2)n1,15.3%
18,CC1=C(C(=O)OCc2ccccc2)C(c2cccs2)N2C(=O)CCSC2=N1 (centres unmarked),18.7%
19,CC(Sc1nc2ccccc2[nH]1)C(=O)NC1CCCCC1C (centres unmarked),8.22%
20,Cc1ccc2cccc(OCc3nnc(SCC(=O)O)n3C)c2n1,19%
21,S=c1[nH]nc(CCc2nc3ccccc3[nH]2)n1-c1ccccc1,13.3%
22,CCOc1ccc(N(CC(=O)NCCc2ccccc2)S(=O)(=O)c2ccccc2)cc1,14.1%
23,CCn1c(SCC(=O)Nc2cccnc2Cl)nnc1-c1ccccc1,4.14%
24,O=C(C[n+]1cccc(Br)c1)c1ccc(-c2ccccc2)cc1.[Br-],-1.74%
25,C/C(Cn1nnc([N+](=O)[O-])n1)=N\NC(=O)c1ccc(Cl)c(Cl)c1,-3.52%
26,Cc1cccc(-n2ccnc2SCC(=O)Nc2ccc3c(c2)OCCO3)c1,-5.76%

# Source: paper PMC4336329 (PLoS ONE, 2015)
